# In all, about 350,000 compounds went through this assay and about 9,900 (2.8%) were called active. Inconclusive results, whose numbers are uncertain, are shown with a selection of clear calls. Calls follow the shape of the dose curve; as a rule, active = well fitted activation curve with a large enough effect; inconclusive = small, poorly fitted or top-dose-only effect; inactive = no such curve, though single readings can be large or run the other way. Potencies of inconclusive entries are left out as doubtful fits.
# Test: A quantitative high throughput screen for small molecules that induce DNA re-replication in MCF 10a normal breast cells. Also: nearly all actives have a fitted effect of over 50% in size. As to activity, positive = re-replication: % of control where 0% means no effect.
# Settings: MCF 10A DNA re-replication, Hoechst nuclear intensity, 48 h; activity, positive = re-replication: at 46.1 µM (top of the series)
# Potency is read from the fitted curve at half-maximal effect; tags tell the direction and shape of the fitted curve.
SMILES,"activity, positive = re-replication",Potency
COc1ccc(CCNC(=O)c2ccc(CNc3nc(=S)[nH]c4ccccc34)cc2)cc1OC,inactive: 11.1%,–
Cc1ccc(O)c(NC(=O)c2cccc(NC(=O)c3ccco3)c2)c1,inactive: -4.24%,–
COc1cc(CNc2ccc(N3CCCC3)cc2)ccc1OCc1ccccc1,–,"inconclusive [activator, single point]"
CN(C)c1cccc(C(=O)OCCCC(=O)c2ccc(F)cc2)c1,–,"inconclusive [activator, single point]"
CC/C(=N\NC(=O)COc1ccc(Br)cc1)c1ccc(OC)c(OC)c1,–,"inconclusive [activator, single point]"
CCOC(=O)c1c(-c2ccccc2)oc2cc(CN(C)C)c(O)c(CN(C)C)c12,–,"inconclusive [activator, single point]"
CCOC(=O)c1oc2ccccc2c1CN1CCCCC1,inactive: -10.7%,–
COc1cc(C(=S)N2CCCCC2)ccc1OCC(=O)Nc1ccccc1Cl,–,"inconclusive [activator, single point]"
Cc1cc(C)n2c(=O)c3ccc(Cl)cc3nc2c1C#N,–,"inconclusive [activator, full curve, poor fit]"
OCC1(Cc2ccccc2F)CCCN(Cc2c(F)ccc(F)c2F)C1 (centres undefined),–,"inconclusive [activator, single point]"
CCc1ccc(OCC(O)CN2CCN(c3ccccn3)CC2)cc1 (centres undefined),–,"inconclusive [activator, partial curve, poor fit]"
Cc1ccccc1Cn1cc(NC(=O)c2nc3ncccn3n2)cn1,–,"inconclusive [activator, partial curve, poor fit]"
O=C(NCc1ccco1)C(c1ccncc1)N(C(=O)Cn1nnc2ccccc21)c1ccccc1F (centres undefined),inactive: 2.24%,–
Cc1ccc(OCc2cc(C(=O)NCc3cn4ccccc4n3)no2)cc1C,–,"inconclusive [activator, single point]"
CSc1ccc(S(=O)(=O)NCC(=O)OCCOc2ccccc2)cc1[N+](=O)[O-],–,"inconclusive [activator, single point]"
O=C(Nc1ccc(-c2cscn2)cc1)C1CCCN(Cc2ccccc2)C1 (centres undefined),–,"inconclusive [activator, single point]"
Cc1ccc2c(c1Br)/C(=N/N1C(=O)c3ccccc3C1=O)C(=O)N2,–,"inconclusive [activator, single point]"
COc1ccc(-c2c(C)oc3cc(O)cc(O)c3c2=O)cc1OC,inactive: -1.5%,–
CCN1CCN(c2ccc(Cl)cc2NC(=O)c2ccc(-n3nc(C)cc3C)cc2)CC1,–,"inconclusive [activator, partial curve, poor fit]"
CC(=O)c1c(C)[nH]c(C(=O)CN2C(=O)NC3(CCCCC3)C2=O)c1C,inactive: -27.6%,–
CCSC1=C(C#N)C(c2ccccc2Cl)C(C(=O)c2cccs2)C(O)(C(F)(F)F)N1 (centres undefined),–,"inconclusive [activator, single point]"
CC[C@@H](CC1CCCCC1)C(=O)N(Cc1ccccc1)c1ccccc1,inactive: 14.3%,–
CCCC1(c2ccccc2)NC(=O)N(C/C=C/Cl)C1=O (centres undefined),inactive: -0.0827%,–

SMILES,"activity, positive = re-replication",Potency
Cc1ccc2nc3c(cc(C(=O)NC4CCCC4)c(=N)n3C3CCCCC3)c(=O)n2c1,–,"inconclusive [activator, partial curve, poor fit]"
O=C(O)c1ccc(NC(=S)NC(=O)c2cccc(COc3ccccc3)c2)cc1,inactive: -0.711%,–
O=C(Nc1ccc(S(=O)(=O)Nc2cnc3ccccc3n2)cc1)c1ccc(Cl)cc1Cl,–,"inconclusive [activator, partial curve, poor fit]"
CC(NC(=O)c1cc(Br)cs1)C1CCCO1 (centres undefined),–,"inconclusive [activator, single point]"
COc1ccc(C(CCNC(C)c2ccccc2)c2ccc(F)cc2)cc1 (centres undefined),–,"inconclusive [activator, single point]"
COc1ccccc1N=CC=C1OC(C)(C)C(C)(C)O1,–,active: 20.6 µM
Cc1ccc(SCC(=O)Nc2ccc(-c3nc4ccccc4[nH]3)cc2)cc1,–,active: 13 µM
O=c1c2ccccc2c(-c2cccc(C(F)(F)F)c2)nn1-c1ccccc1,–,"inconclusive [activator, single point]"
N=C(N)SCc1ccccc1Cl,–,"inconclusive [activator, single point]"
CCOc1ccc(-c2nnc(SCc3nnc(-c4ccccc4)o3)n2-c2ccccc2F)cc1,–,"inconclusive [activator, partial curve, poor fit]"
COc1ccc(Cl)cc1NC(=O)CN(C)CC(=O)Nc1ccccc1-c1ccccc1,–,"inconclusive [activator, partial curve, poor fit]"
O=C(N/N=C/c1cccs1)c1cc(-c2ccc3ccccc3c2)n[nH]1,–,"inconclusive [activator, single point]"
CCOC(=O)c1c(C)nc2sc(C(=O)Nc3ccc(OC)cc3)c(N)c2c1-c1ccc(OC)cc1,–,active: 3.55 µM
COc1cccc(N=C2C(=O)N3CCCc4cccc2c43)c1,–,"inconclusive [activator, partial curve, poor fit]"
CC1CCc2sc3ncnc(N4CCOCC4)c3c2C1 (centres undefined),–,"inconclusive [activator, partial curve, poor fit]"
COc1ccc(/C=N/NC(=O)CNC(=O)c2ccc3c(c2)OCCO3)cc1OC,inactive: 8.23%,–
CCOC(=O)c1c(SCC(=O)Nc2nccs2)nc(C)c(C)c1C,–,active: 16.4 µM
CNc1ccc(N=Nc2cccc3ncccc23)cc1,inactive: 20%,–
CCCC(=O)Nc1nc2ccc(NC(=O)c3ccccc3F)cc2s1,–,active: 6.51 µM
CC(C)(C)N=C1NN=C(c2ccc(S(=O)(=O)N3CCCCC3)cc2)CS1,–,"inconclusive [activator, full curve, poor fit]"
COc1ccc(NS(=O)(=O)c2cc(NC(=O)c3cc(F)c(F)c(F)c3F)ccc2N2CCCC2)cc1,–,"inconclusive [activator, partial curve, poor fit]"
CCN(CC)S(=O)(=O)c1ccc(N/N=C/c2ccc(O)cc2)nc1,inactive: -20.2%,–
CCCCN1C(=O)CCC(C(=O)O)C1c1ccc([N+](=O)[O-])cc1 (centres undefined),inactive: 0.362%,–

SMILES,"activity, positive = re-replication",Potency
O=C(O)CCCCn1c(SCc2ccccc2Cl)nc2ccsc2c1=O,–,"inconclusive [activator, single point]"
Cc1ccc(S(=O)(=O)N(CC(=O)Nc2ccccc2C(=O)O)c2ccccc2)cc1,–,"inconclusive [activator, single point]"
CN1C(=O)c2cccc3c(S(=O)(=O)Nc4ccccn4)ccc1c23,–,"inconclusive [activator, single point]"
CCCN(CC(=O)Nc1ccc(C(N)=O)cc1)CC(=O)Nc1ccc(F)c(F)c1F,inactive: -5.05%,–
CCC(c1nnnn1C(C)(C)C)N1CCN(c2cc(Cl)ccc2C)CC1 (centres undefined),–,active: 13 µM
COc1ccc(/C=N/NC(=O)c2ccc(CSc3nncn3C)cc2)cc1OC,–,"inconclusive [activator, single point]"
CCCCC1=CC2=CC(=O)C(C)(OC(=O)CC)C(=O)C2=CN1c1ccccc1 (centres undefined),inactive: -7.81%,–
FC(F)(F)c1cccc(N2CCc3cn[nH]c32)c1,–,"inconclusive [activator, partial curve, poor fit]"
Cc1ccc2c(c1)c1ccc3c(c1n2C)C(=O)C=CC3=O,–,"inconclusive [activator, single point]"
COc1cccc(-c2nc(-c3ccccc3)[nH]c(=O)c2C#N)c1,–,"inconclusive [activator, partial curve, poor fit]"
Cc1c(C)c2ccc(OCC(=O)N(C)C3CCS(=O)(=O)C3)c(C)c2oc1=O (centres undefined),inactive: -5.58%,–
CC[C@@H]1C/C=C\Cc2ccccc2[C@H](C(=O)C[C@H](O)CC(C)=O)OC1=O,inactive: -12.1%,–
CC(=NNc1ccc([N+](=O)[O-])cn1)c1ccccc1,inactive: -0.793%,–
CCCCNCC(O)(c1ccc(Cl)cc1)c1ccc(Cl)cc1,–,"inconclusive [activator, full curve, poor fit]"
Cc1[nH]c(=O)c(C#N)cc1-c1csc(-c2ccccc2)n1,–,"inconclusive [activator, single point]"
CN1C2CCC1CC(NS(=O)(=O)c1cc(Cl)c(Cl)cc1Cl)C2 (centres undefined),–,"inconclusive [activator, partial curve, poor fit]"
COc1ccc(C(=O)O)cc1NC(=S)NC(=O)c1ccc(-c2ccc(Cl)cc2)o1,–,"inconclusive [activator, partial curve]"
CCCc1cc(C(=O)N/N=C/c2ccc(C)o2)c2ccccc2n1,–,"inconclusive [activator, single point]"
O=C1CCN(Cc2nc(-c3ccc(Cl)cc3)no2)CCN1,–,"inconclusive [activator, single point]"
CN1CCN(C(=O)Nc2cccc(-c3ccccc3)c2)CC1,–,"inconclusive [activator, single point]"
O=C(CCc1ccc(Oc2cc([N+](=O)[O-])cc([N+](=O)[O-])c2)cc1)N1CCCCC1,–,"inconclusive [activator, single point]"
Cc1cccc(NC(=O)C2C(c3ccccc3)C2(Cl)Cl)c1 (centres undefined),–,"inconclusive [activator, single point]"
O=C(Cc1cccc(C(F)(F)F)c1)NCc1ccc(Cl)cc1Cl,–,"inconclusive [activator, partial curve, poor fit]"

# Reference: PubChem BioAssay AID624296 (National Center for Advancing Translational Sciences (NCATS), 2012)
